According to PubChem BioAssay AID504332 (National Center for Advancing Translational Sciences (NCATS), 2011):
Screen size: about 350,000 compounds; about 31,000 (8.9%) were called active. The inconclusive results got no clear call from the source; some entries with a clear call stand among them for comparison. Calls follow the shape of the dose curve; as a rule, active = well fitted inhibition curve with a large enough effect; inconclusive = small, poorly fitted or top-dose-only effect; inactive = no such curve, though single readings can be large or run the other way. Potencies of inconclusive entries are doubtful fits and often do not repeat.

Each compound was assayed against Histone-lysine N-methyltransferase EHMT2 (Homo sapiens) (UniProt Q96KQ7) (assay: qHTS Assay for Inhibitors of Histone Lysine Methyltransferase G9a). Conditions: G9a H3K9 monomethylation, AlphaScreen, 2 h; activity, negative = inhibition: at 59 µM (top of the series) unless noted.
Chain of UniProt Q96KQ7 (Q96KQ7 whole entry, looked up): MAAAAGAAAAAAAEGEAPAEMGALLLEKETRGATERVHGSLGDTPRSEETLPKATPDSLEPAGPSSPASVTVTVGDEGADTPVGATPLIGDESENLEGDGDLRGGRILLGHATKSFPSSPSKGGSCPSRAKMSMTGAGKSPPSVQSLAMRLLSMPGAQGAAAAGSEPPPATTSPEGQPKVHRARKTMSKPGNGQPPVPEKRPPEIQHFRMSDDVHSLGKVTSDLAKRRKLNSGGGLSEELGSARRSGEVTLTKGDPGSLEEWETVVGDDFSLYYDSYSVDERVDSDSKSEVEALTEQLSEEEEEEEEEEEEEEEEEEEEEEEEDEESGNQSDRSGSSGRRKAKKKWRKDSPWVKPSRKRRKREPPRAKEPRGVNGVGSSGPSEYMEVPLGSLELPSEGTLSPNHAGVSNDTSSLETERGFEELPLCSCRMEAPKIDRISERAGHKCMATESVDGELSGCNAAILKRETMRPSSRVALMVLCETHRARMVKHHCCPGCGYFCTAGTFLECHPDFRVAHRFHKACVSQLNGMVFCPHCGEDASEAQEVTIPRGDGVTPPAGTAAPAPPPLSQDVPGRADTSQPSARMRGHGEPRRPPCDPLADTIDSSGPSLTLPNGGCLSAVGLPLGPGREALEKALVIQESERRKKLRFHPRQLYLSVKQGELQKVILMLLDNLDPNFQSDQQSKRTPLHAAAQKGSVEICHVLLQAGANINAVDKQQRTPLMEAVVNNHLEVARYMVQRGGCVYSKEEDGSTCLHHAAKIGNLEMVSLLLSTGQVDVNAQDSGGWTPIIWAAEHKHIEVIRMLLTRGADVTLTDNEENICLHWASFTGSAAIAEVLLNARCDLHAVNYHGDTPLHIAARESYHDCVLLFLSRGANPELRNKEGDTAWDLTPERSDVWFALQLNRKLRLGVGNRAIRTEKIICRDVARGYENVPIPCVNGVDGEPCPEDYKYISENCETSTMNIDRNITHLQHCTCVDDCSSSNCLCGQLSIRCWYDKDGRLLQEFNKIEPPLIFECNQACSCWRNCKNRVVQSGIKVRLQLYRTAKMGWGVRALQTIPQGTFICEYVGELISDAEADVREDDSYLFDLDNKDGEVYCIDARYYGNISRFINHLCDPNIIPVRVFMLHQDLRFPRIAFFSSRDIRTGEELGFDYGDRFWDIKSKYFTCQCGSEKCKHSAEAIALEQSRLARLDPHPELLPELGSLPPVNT
Summary of the method: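 Step 1: enzyme (final 20 nM) with compound, 15 min RT. Step 2: substrate peptide 500 nM and SAM 20 uM, 2 h RT. Step 3: anti-H3K9me1 antibody and AlphaScreen beads, 10 min, then plate read.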
% is scaled to controls: 0 for no effect and ±100 for the full control effect; potency is read from the fitted curve at half-maximal effect; tags tell the direction and shape of the fitted curve.
Also: nearly all actives have a fitted effect of over 75% in size.

SMILES	Potency	activity, negative = inhibition
Cc1c(CCC(=O)NCCCCCC(=O)O)c(=O)oc2cc3occ(-c4ccccc4)c3cc12	inconclusive: 89.1 µM [inhibitor, single point]	
COc1ccccc1N1CC(C(=O)Nc2cccc(C(=O)O)c2)CC1=O (stereo not drawn)	inconclusive: 89.1 µM [inhibitor, single point]	
CCOC(=O)C1=C(C)NC(=S)N(C(C)=O)C1c1ccccc1 (stereo not drawn)	inactive	
Cc1cc(C)cc(NC(=O)c2cc3c(=O)n(Cc4ccco4)ccc3nc2C)c1	inactive	
CN1CCc2c(sc3c2c(=O)n(-c2ccccc2)c2n[nH]c(=S)n32)C1	active: 5.01 µM	
CCc1ccccc1NC(=O)CN1CCC(NC(=O)COC)CC1	inconclusive: 56.2 µM [inhibitor, partial curve, poor fit]	
CC(=O)Nc1ccc(S(=O)(=O)N/N=C/c2ccc(C)o2)cc1	active: 44.7 µM	
Cc1nc(NC(=S)Nc2ccccc2)sc1C	inactive	
Cc1ccc2sc(N(CCCN(C)C)C(=O)c3nc4ccccc4s3)nc2c1C	active: 44.7 µM	
COc1ccc(-c2nc(CN3CCCCC3c3cccnc3)c(C)o2)c(F)c1 (stereo not drawn)	inactive	
O=C(O)COc1ccccc1/C=N/NC(=O)c1cc(-c2ccc(F)cc2)nc2ccccc12	inactive	
CCCCn1c(N)c(N(CCC(C)C)C(=O)CC2CCCCC2)c(=O)[nH]c1=O	inconclusive: 89.1 µM [inhibitor, partial curve, poor fit]	
O=C(CN1CCCCC1)Nc1ccc(S(=O)(=O)N2CCCCCC2)cc1	inconclusive: 31.6 µM [inhibitor, single point]	
COC(=O)C1(Cc2cc(-c3cccnc3)no2)CCN(C(=O)OC(C)(C)C)CC1	inconclusive: 79.4 µM [inhibitor, single point]	
CCOC(=O)c1sc(NC(=O)CSc2ncn[nH]2)c(C#N)c1C	inconclusive: 1.12 µM [inhibitor, single point]	
O=C(c1ccccn1)N1N=C2/C(=C/c3ccccc3)CCCC2C1c1ccccc1 (stereo not drawn)	inconclusive: 28.2 µM [inhibitor, single point]	
Cc1ccc(C)c(NC(=O)CN(C)C(=O)c2cccc(N3C(=O)CCC3=O)c2)c1	active: 39.8 µM	
CCc1cc2c(=O)c(-c3nc4ccccc4n3C)c(COCC(=O)O)oc2cc1O	inactive	
CCOc1cccc(=O)c2c(C)n(CC(=O)c3ccccc3)c(C)c12	inconclusive: 44.7 µM [inhibitor, partial curve, poor fit]	
O=C(CSc1nc(O)cc(=O)[nH]1)C1CC1	inconclusive: 6.31 µM [inhibitor, single point]	
COc1ccc(CNC(=S)N/N=C(\C)c2ccc(OC)cc2)cc1	inconclusive: 56.2 µM [inhibitor, single point]	
O=C(Cn1cccc1C(=O)c1ccccc1)NCc1cccc(Cl)c1	inactive	
CCc1cc[n+](C2=C([O-])c3ccccc3C(=O)/C2=N\S(=O)(=O)c2cccs2)cc1	inconclusive: 35.5 µM [inhibitor, single point]	
S=P(c1ccc(N2CCOCC2)cc1N1CCOCC1)(N1CCOCC1)N1CCOCC1	active: 10 µM	
Nc1cc(-c2ccc(Br)cc2)nn1S(=O)(=O)c1cccc2nsnc12	inconclusive: 39.8 µM [inhibitor, full curve, poor fit]	

SMILES	Potency	activity, negative = inhibition
CSc1cccc(NC(=O)N2CCN(S(=O)(=O)c3ccc4c(ccn4C)c3)CC2)c1	inactive	
COc1cc(NC(=O)C2CC(c3cccc(OC)c3OC)=NO2)cc(OC)c1OC (stereo not drawn)		inconclusive: -68.1% [inhibitor]
COc1ccc2c(CNCCc3ccccc3OC)c(C(=O)O)n(Cc3ccc(F)cc3Cl)c2c1	inconclusive: 1 µM [inhibitor, full curve, poor fit]	
CCC(=O)NC(c1cccs1)c1cc([N+](=O)[O-])c2cccnc2c1OC (stereo not drawn)	inconclusive: 3.16 µM [inhibitor, partial curve, poor fit]	
COc1cccc(/C=N/Nc2nnc(C)n2N)c1OCc1ccccc1Cl	active: 22.4 µM	
CCn1nc([N+](=O)[O-])c(C(C#N)c2nc3ccccc3n2C)c(Cl)c1=O (stereo not drawn)	inconclusive: 35.5 µM [inhibitor, single point]	
CCOC(=O)Cc1c(C)nc2c(C#N)c(C)nn2c1C	inconclusive: 2.82 µM [inhibitor, partial curve, poor fit]	
CC(NC(=O)CC(O)(C(F)(F)F)C(F)(F)F)c1ccccc1 (stereo not drawn)	inconclusive: 5.01 µM [inhibitor, partial curve, poor fit]	
CCc1c(C(=O)NNC(=S)Nc2ccc(S(=O)(=O)Nc3ncccn3)cc2)csc1C	active: 20 µM	
O=C1CCCc2c1cc(-c1ccccc1)n2-c1ccccc1	active: 44.7 µM	
O=C(Cn1ccc2ccccc2c1=O)NCCC(=O)NC1CCN(Cc2ccccc2)CC1	inactive	
Cn1ccnc1SCC(=O)c1cc2ccccc2o1	active: 39.8 µM	
Cc1ccc(Cl)cc1N1CCN(C(=O)c2ccc(CS(=O)Cc3ccc(Cl)cc3)o2)CC1 (stereo not drawn)	inconclusive: 5.01 µM [inhibitor, full curve, poor fit]	
COc1ccc(CCNc2oc(-c3ccccc3OC)nc2C#N)cc1		inconclusive: -86.4% [inhibitor]
NC(=S)N=Nc1ccc(NN=C(N)N)cc1	inconclusive: 0.794 µM [inhibitor, full curve, poor fit]	
O=C(Oc1cc(-c2ccccc2)no1)c1ccc(Cl)cc1	active: 79.4 µM	
COc1cc(C2C(C(=O)Nc3ccccc3)=C(C)Nc3nnnn32)cc(OC)c1OC (stereo not drawn)	inactive	
COc1cccc(NC(=S)NN=C2CCCCCC2)c1	active: 10 µM	
Nc1nonc1-n1nnc(C(=O)N/N=C/c2ccc(Cl)cc2Cl)c1CN1CCOCC1	inconclusive: 79.4 µM [inhibitor, single point]	
CCOc1ccc2oc(C(=O)N3CCN(c4ccccn4)CC3)c(C)c2c1		inactive: 4.52% [at 0.501 µM]
O=C(CSCc1ccc(F)cc1)Nc1nc2c(s1)CCCC2	inconclusive: 44.7 µM [inhibitor, partial curve]	
Cc1[nH]c(=O)[nH]c(=O)c1S(=O)(=O)N1CCCC(C(=O)NCCC2=CCCCC2)C1 (stereo not drawn)	inconclusive: 44.7 µM [inhibitor, partial curve, poor fit]	
CC1Cc2ccccc2N1C(=O)CSc1nnc2sc3ccccc3n12 (stereo not drawn)	inconclusive: 100 µM [inhibitor, single point]	
Cc1ccc(C)c2[nH]c(=O)c(C(c3nnnn3Cc3ccccc3)N3CCc4ccccc4C3)cc12 (stereo not drawn)	active: 3.16 µM	
CC(C(=O)O/N=C(\N)c1ccccn1)c1ccc([N+](=O)[O-])cc1 (stereo not drawn)	inconclusive: 17.8 µM [inhibitor, full curve]	

SMILES	Potency	activity, negative = inhibition
O=C(CN1CCOc2ccccc21)NCc1cccs1	inconclusive: 89.1 µM [inhibitor, single point]	
COc1ccc(Cl)cc1NC(=O)CN1C(=O)CCS(=O)(=O)c2ccccc21	inconclusive: 28.2 µM [inhibitor, single point]	
Cc1ccccc1OCC(=O)NN1Cc2ccccc2C1=N	inactive	
CSc1nccn1C(=O)c1ccccc1[N+](=O)[O-]	active: 35.5 µM	
CCc1cc2c(=O)n(-c3ccccc3)c(=S)[nH]c2s1	inconclusive: 31.6 µM [inhibitor, single point]	
COc1ccc2[nH]c(C(=O)O)c(CCC(=O)O)c2c1	inconclusive: 1.58 µM [inhibitor, partial curve, poor fit]	
Cc1cc(C)n(Cc2ccc(C(=O)N/N=C/c3ccc(-c4ccc([N+](=O)[O-])cc4)o3)o2)n1	inactive	
CCCc1nc(SCC(=O)Nc2nc3c(s2)CCCC3)c2ccccc2n1		inconclusive: -52.8% [inhibitor]
CCN(CC)CCN(C)C1CCC(c2ccccc2)CC1 (stereo not drawn)	active: 8.91 µM	
O=c1c2sc3ccccc3c2n(Cc2cccc(C(F)(F)F)c2)c(=O)n1Cc1ccc(F)cc1	inactive	
Cc1cccc(C)c1Nc1c(-c2ccc(O)cc2)nc2sccn12	active: 3.98 µM	
CCC1(c2ccccc2)NC(=O)N(CC(=O)N2CCN(S(=O)(=O)c3ccccc3)CC2)C1=O (stereo not drawn)	inconclusive: 89.1 µM [inhibitor, single point]	
CN1c2ccccc2C(C)(C)C12CC(c1cccc(S(=O)(=O)N3CCCC3)c1)=NO2 (stereo not drawn)	inactive	
CCOC(=O)C(NC(=O)Nc1ncccn1)(Oc1ccccc1)C(F)(F)F (stereo not drawn)	inconclusive: 89.1 µM [inhibitor, single point]	
COc1cccc(-n2c(CCn3nc(C)c([N+](=O)[O-])c3C)n[nH]c2=S)c1	active: 25.1 µM	
C=CCOC(=O)C1=C[C@@H](C2CCCCC2)C[C@@H](OCc2ccc(CO)cc2)O1		inconclusive: -84.2% [inhibitor]
CC(C)C(C(=O)O)N1C(=O)/C(=C/C=C/c2ccco2)SC1=S (stereo not drawn)	active: 3.55 µM	
CCOc1ccc(S(=O)(=O)NCCc2sc3nc(-c4ccc(C)cc4)nn3c2C)cc1	inactive	
Cc1nc(-c2ccc(S(=O)(=O)Nc3ccc(Br)cc3Cl)s2)cs1	inconclusive: 50.1 µM [inhibitor, single point]	
CCO/C=C1/C(=O)N(Cc2ccccc2)C(=O)c2ccccc21	active: 14.1 µM	
COc1ccc(CC(=O)NCc2nnc(SCC(=O)c3ccc(OC)cc3)n2C)cc1	inactive	
CNc1cc([N+](=O)[O-])ccc1OCc1ccccc1	inactive	
Cc1ccc(-c2cn(-c3ccc(Cl)cc3)c(S(=O)(=O)CC(=O)Nc3ccccc3)n2)cc1	inconclusive: 8.91 µM [inhibitor, partial curve, poor fit]	
